Laboratory results as given in article PMC3242779.
These are yes or no findings as the source states them, for the method shown. Binding seen in cells or lysates may run through a third protein. Some entries that bind do so weakly or less than the wild type. Where a sequence is shown, tags or fusion partners need not be part of it.

Amino acid sequences for entries named in this document (tags omitted).
UniProt Q7KZI7: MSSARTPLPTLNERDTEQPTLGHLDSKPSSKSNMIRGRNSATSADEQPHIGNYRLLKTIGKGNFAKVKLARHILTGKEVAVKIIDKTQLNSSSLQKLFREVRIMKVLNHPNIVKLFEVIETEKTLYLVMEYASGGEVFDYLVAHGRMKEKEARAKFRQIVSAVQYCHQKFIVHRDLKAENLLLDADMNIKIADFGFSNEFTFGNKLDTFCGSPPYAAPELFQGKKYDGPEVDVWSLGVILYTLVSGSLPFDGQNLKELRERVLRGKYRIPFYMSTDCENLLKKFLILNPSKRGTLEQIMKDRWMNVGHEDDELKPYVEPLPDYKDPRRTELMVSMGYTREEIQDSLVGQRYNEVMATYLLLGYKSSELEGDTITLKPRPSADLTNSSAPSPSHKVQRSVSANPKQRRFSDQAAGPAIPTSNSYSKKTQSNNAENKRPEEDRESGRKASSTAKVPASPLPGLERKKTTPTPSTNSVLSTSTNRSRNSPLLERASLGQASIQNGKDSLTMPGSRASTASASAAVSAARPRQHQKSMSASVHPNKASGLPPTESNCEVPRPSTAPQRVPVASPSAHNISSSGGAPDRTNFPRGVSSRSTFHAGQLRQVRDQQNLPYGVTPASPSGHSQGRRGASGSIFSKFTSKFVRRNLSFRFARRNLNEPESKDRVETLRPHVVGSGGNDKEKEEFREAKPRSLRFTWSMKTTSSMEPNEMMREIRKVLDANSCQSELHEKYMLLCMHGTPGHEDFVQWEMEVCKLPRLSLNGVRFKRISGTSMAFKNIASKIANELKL
UniProt P27448: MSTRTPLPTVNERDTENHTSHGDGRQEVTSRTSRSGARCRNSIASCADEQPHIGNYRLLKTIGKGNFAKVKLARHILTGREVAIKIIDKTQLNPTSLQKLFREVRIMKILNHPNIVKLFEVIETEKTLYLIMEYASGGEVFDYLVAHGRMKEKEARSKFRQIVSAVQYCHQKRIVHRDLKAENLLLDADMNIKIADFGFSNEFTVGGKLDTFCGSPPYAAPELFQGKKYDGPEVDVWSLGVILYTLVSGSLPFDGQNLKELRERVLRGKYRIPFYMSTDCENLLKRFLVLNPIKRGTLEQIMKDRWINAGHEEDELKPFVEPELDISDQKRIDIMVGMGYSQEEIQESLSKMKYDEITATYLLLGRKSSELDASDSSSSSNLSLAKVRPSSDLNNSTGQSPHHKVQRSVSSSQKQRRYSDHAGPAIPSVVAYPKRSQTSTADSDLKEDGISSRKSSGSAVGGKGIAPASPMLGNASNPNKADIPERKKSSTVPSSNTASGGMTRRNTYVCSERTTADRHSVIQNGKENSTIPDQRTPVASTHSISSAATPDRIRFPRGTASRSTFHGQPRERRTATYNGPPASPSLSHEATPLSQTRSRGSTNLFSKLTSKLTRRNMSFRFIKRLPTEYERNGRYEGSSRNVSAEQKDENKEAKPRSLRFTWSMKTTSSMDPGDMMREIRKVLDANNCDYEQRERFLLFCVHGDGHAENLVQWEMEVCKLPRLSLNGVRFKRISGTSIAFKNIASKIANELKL

T1: KSR1-FLAG (wild type) (UniProt Q61097)
T1 sequence: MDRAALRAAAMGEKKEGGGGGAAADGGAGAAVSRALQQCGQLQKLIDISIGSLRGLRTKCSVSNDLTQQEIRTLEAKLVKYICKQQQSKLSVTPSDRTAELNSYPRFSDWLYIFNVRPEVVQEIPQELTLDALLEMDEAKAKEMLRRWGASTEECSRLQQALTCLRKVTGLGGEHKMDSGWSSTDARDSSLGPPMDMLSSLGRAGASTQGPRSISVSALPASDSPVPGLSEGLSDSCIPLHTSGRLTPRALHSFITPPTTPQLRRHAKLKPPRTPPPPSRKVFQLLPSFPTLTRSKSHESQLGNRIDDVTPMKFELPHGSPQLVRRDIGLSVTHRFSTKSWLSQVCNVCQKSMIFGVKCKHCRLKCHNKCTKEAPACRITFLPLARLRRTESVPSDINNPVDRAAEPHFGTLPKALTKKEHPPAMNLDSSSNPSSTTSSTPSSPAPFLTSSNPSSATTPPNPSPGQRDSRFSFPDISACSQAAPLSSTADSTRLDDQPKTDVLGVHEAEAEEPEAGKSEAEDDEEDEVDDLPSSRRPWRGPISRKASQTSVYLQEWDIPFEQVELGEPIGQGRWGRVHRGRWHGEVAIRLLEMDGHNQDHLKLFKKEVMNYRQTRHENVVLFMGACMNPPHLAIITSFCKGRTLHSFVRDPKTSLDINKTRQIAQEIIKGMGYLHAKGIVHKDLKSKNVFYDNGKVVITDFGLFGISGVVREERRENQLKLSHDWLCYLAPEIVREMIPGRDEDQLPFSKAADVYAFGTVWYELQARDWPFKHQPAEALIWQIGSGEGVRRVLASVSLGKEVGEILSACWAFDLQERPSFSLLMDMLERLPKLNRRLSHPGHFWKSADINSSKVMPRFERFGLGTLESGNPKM

B1: KSR1-FLAG (wild type) (protein, UniProt Q61097 1-873)
chain: MDRAALRAAAMGEKKEGGGGGAAADGGAGAAVSRALQQCGQLQKLIDISIGSLRGLRTKCSVSNDLTQQEIRTLEAKLVKYICKQQQSKLSVTPSDRTAELNSYPRFSDWLYIFNVRPEVVQEIPQELTLDALLEMDEAKAKEMLRRWGASTEECSRLQQALTCLRKVTGLGGEHKMDSGWSSTDARDSSLGPPMDMLSSLGRAGASTQGPRSISVSALPASDSPVPGLSEGLSDSCIPLHTSGRLTPRALHSFITPPTTPQLRRHAKLKPPRTPPPPSRKVFQLLPSFPTLTRSKSHESQLGNRIDDVTPMKFELPHGSPQLVRRDIGLSVTHRFSTKSWLSQVCNVCQKSMIFGVKCKHCRLKCHNKCTKEAPACRITFLPLARLRRTESVPSDINNPVDRAAEPHFGTLPKALTKKEHPPAMNLDSSSNPSSTTSSTPSSPAPFLTSSNPSSATTPPNPSPGQRDSRFSFPDISACSQAAPLSSTADSTRLDDQPKTDVLGVHEAEAEEPEAGKSEAEDDEEDEVDDLPSSRRPWRGPISRKASQTSVYLQEWDIPFEQVELGEPIGQGRWGRVHRGRWHGEVAIRLLEMDGHNQDHLKLFKKEVMNYRQTRHENVVLFMGACMNPPHLAIITSFCKGRTLHSFVRDPKTSLDINKTRQIAQEIIKGMGYLHAKGIVHKDLKSKNVFYDNGKVVITDFGLFGISGVVREERRENQLKLSHDWLCYLAPEIVREMIPGRDEDQLPFSKAADVYAFGTVWYELQARDWPFKHQPAEALIWQIGSGEGVRRVLASVSLGKEVGEILSACWAFDLQERPSFSLLMDMLERLPKLNRRLSHPGHFWKSADINSSKVMPRFERFGLGTLESGNPKM
B2: KSR1 N539 (FLAG-tagged) (domain or fragment, UniProt Q61097 1-539)
chain: MDRAALRAAAMGEKKEGGGGGAAADGGAGAAVSRALQQCGQLQKLIDISIGSLRGLRTKCSVSNDLTQQEIRTLEAKLVKYICKQQQSKLSVTPSDRTAELNSYPRFSDWLYIFNVRPEVVQEIPQELTLDALLEMDEAKAKEMLRRWGASTEECSRLQQALTCLRKVTGLGGEHKMDSGWSSTDARDSSLGPPMDMLSSLGRAGASTQGPRSISVSALPASDSPVPGLSEGLSDSCIPLHTSGRLTPRALHSFITPPTTPQLRRHAKLKPPRTPPPPSRKVFQLLPSFPTLTRSKSHESQLGNRIDDVTPMKFELPHGSPQLVRRDIGLSVTHRFSTKSWLSQVCNVCQKSMIFGVKCKHCRLKCHNKCTKEAPACRITFLPLARLRRTESVPSDINNPVDRAAEPHFGTLPKALTKKEHPPAMNLDSSSNPSSTTSSTPSSPAPFLTSSNPSSATTPPNPSPGQRDSRFSFPDISACSQAAPLSSTADSTRLDDQPKTDVLGVHEAEAEEPEAGKSEAEDDEEDEVDDLPSSRRPWR
B3: KSR1 N539 lacking the residues from 378-427 (FLAG-tagged) (domain or fragment, UniProt Q61097)
chain: MDRAALRAAAMGEKKEGGGGGAAADGGAGAAVSRALQQCGQLQKLIDISIGSLRGLRTKCSVSNDLTQQEIRTLEAKLVKYICKQQQSKLSVTPSDRTAELNSYPRFSDWLYIFNVRPEVVQEIPQELTLDALLEMDEAKAKEMLRRWGASTEECSRLQQALTCLRKVTGLGGEHKMDSGWSSTDARDSSLGPPMDMLSSLGRAGASTQGPRSISVSALPASDSPVPGLSEGLSDSCIPLHTSGRLTPRALHSFITPPTTPQLRRHAKLKPPRTPPPPSRKVFQLLPSFPTLTRSKSHESQLGNRIDDVTPMKFELPHGSPQLVRRDIGLSVTHRFSTKSWLSQVCNVCQKSMIFGVKCKHCRLKCHNKCTKEAPACDSSSNPSSTTSSTPSSPAPFLTSSNPSSATTPPNPSPGQRDSRFSFPDISACSQAAPLSSTADSTRLDDQPKTDVLGVHEAEAEEPEAGKSEAEDDEEDEVDDLPSSRRPWR
B4: KSR1 N539 I397A/V401A (FLAG-tagged) (domain or fragment, UniProt Q61097 1-539)
chain: MDRAALRAAAMGEKKEGGGGGAAADGGAGAAVSRALQQCGQLQKLIDISIGSLRGLRTKCSVSNDLTQQEIRTLEAKLVKYICKQQQSKLSVTPSDRTAELNSYPRFSDWLYIFNVRPEVVQEIPQELTLDALLEMDEAKAKEMLRRWGASTEECSRLQQALTCLRKVTGLGGEHKMDSGWSSTDARDSSLGPPMDMLSSLGRAGASTQGPRSISVSALPASDSPVPGLSEGLSDSCIPLHTSGRLTPRALHSFITPPTTPQLRRHAKLKPPRTPPPPSRKVFQLLPSFPTLTRSKSHESQLGNRIDDVTPMKFELPHGSPQLVRRDIGLSVTHRFSTKSWLSQVCNVCQKSMIFGVKCKHCRLKCHNKCTKEAPACRITFLPLARLRRTESVPSDANNPADRAAEPHFGTLPKALTKKEHPPAMNLDSSSNPSSTTSSTPSSPAPFLTSSNPSSATTPPNPSPGQRDSRFSFPDISACSQAAPLSSTADSTRLDDQPKTDVLGVHEAEAEEPEAGKSEAEDDEEDEVDDLPSSRRPWR

Columns and labels:
Experiment in all cases: co-IP; KSR1-FLAG (WT or mutants) co-transfected with MARK2-HA or C-TAK1-HA in 293T cells; lysed 36 h later in NP40 lysis buffer (20 mM Tris pH 8, 137 mM NaCl, 10% glycerol, 1% NP40); anti-FLAG-agarose or anti-HA-agarose overnight at 4°C; western blot with antibodies to the epitope tags
KSR1-FLAG (wild type) = target: T1, KSR1-FLAG (wild type)
MARK2-HA = MARK2-HA (UniProt Q7KZI7)
C-TAK1-HA = C-TAK1-HA (UniProt P27448)

Molecule	binding (KSR1-FLAG (wild type))	binding (MARK2-HA)	binding (C-TAK1-HA)
MARK2-HA (from UniProt Q7KZI7 1-788) (enzyme)	binds	–	–
C-TAK1-HA (from UniProt P27448 1-753) (enzyme)	binds	–	–
B1	–	binds	binds
B2	–	binds	binds
B3	–	binds	binds
B4	–	binds	no binding
